This is an account of results in article PMC7819943, “Rice protein-binding microarrays: a tool to detect cis-acting elements near promoter regions in rice”.

The other results are listed elsewhere or left out.

This assay deals with T1, OsWOX13 (Oryza sativa, UniProt Q5QMM3 1-267).
T1 sequence: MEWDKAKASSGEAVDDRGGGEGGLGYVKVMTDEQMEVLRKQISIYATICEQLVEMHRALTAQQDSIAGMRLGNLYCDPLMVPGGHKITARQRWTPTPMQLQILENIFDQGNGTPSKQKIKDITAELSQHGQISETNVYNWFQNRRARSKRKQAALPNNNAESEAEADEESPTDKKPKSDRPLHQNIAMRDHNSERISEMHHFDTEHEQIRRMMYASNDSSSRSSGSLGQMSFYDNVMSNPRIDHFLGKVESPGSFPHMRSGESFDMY
Description: protein-binding microarray (RPBM); PBS, 2% BSA, 51.3 ng/ul salmon testes DNA, 50 uM zinc acetate, 200 nM TF, 25 C, 1 h; high values mean tight binding. The following applies: protein: recombinant; tags: N-terminal polyhistidine and DsRed monomer fusion (pET32a); label: CyDye5-dUTP incorporated in the synthesized complementary strand; 3' TTTTT single-stranded linker to array surface; dsDNA, one strand shown. Put shortly: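 Using Ni–NTA, transcription factors fused N-terminally to polyhistidine and DsRed were purified after expression in E. coli BL21-CodonPlus. These were incubated at 200 nM with a blocked, double-stranded custom Agilent array for 1 h at 25 °C in a buffer containing 50 µM zinc acetate, and the array was washed. The binding signal is per-feature fluorescence intensity (arbitrary units) on an Axon 4000B scanner.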
Turning to “AAGGTTAATTGGATCCATGCCACGCGAATTGTGGCAAATCCGGAGTCACCTAGTGCAG”, the binding signal is 22100 fluorescence intensity (a.u.).
Then “TCAGATTAGATTAGGTAGAATGGACTTTCTGCACGTCTTTCGGAGTCACCTAGTGCAG”, with 29700 fluorescence intensity (a.u.); and “GTACCTTCAAATAATTATCAGAAATTATCCAGCCATATTGCGGAGTCACCTAGTGCAG”, with 6900 fluorescence intensity (a.u.).
Take “ATGATTGTTAACCAAAATTCAGTTATATTCTTATATACAACGGAGTCACCTAGTGCAG”: the binding signal is 28300 fluorescence intensity (a.u.).
The same measure for “TTTAATTCCAATTTTGATCACACGTACCAGATTGAATCACCGGAGTCACCTAGTGCAG”: 23200 fluorescence intensity (a.u.); for “ATGTAGAGTTAATTTGTAAGTATGTAGGATCACCTAACTGCGGAGTCACCTAGTGCAG”: 5180 fluorescence intensity (a.u.); for “TAGAAGTTAAATTTGACCTAATATGTTTAATATGTTTATGCGGAGTCACCTAGTGCAG”: 3580 fluorescence intensity (a.u.).
For the sequence “ACCTTGATTAGTAGCCCTAAACCACAGGTTTAACCGCTTACGGAGTCACCTAGTGCAG”, the binding signal was 30500 fluorescence intensity (a.u.).
For “GCTTGATTAGTGGCAGCTTAATGACGAATGAGCCGTAGCACGGAGTCACCTAGTGCAG”, the binding signal was 36700 fluorescence intensity (a.u.).
Then “TTTAATGATATAGTATAACAAATGGACAGCTTGCGTACATCGGAGTCACCTAGTGCAG”, with 6420 fluorescence intensity (a.u.); and “ATAATATGTCAGTTAATTTATAATATCGGTGTACCCGAGACGGAGTCACCTAGTGCAG”, with 19100 fluorescence intensity (a.u.).
Then “TAATGCTTAATTAATCTCAATATAATCGCGTGCTTTGTTTCGGAGTCACCTAGTGCAG”, with 7810 fluorescence intensity (a.u.); and “ATAACTAATTACGCAGATTGCAACCAATCTGCAAGACGAACGGAGTCACCTAGTGCAG”, with 39300 fluorescence intensity (a.u.).
Then “AATTCATTGGCAATCACATTGTGCTTGTTGGCTAACTTCACGGAGTCACCTAGTGCAG”, with 13600 fluorescence intensity (a.u.); and “AATCAAATTGATTGGCTTTATATTAATAGAGGGGAAGAAACGGAGTCACCTAGTGCAG”, with 33500 fluorescence intensity (a.u.).
“AGCAAGTCAGAAACAGCCAATCACATGATGCCACGTGCATCGGAGTCACCTAGTGCAG”: the binding signal was 9610 fluorescence intensity (a.u.).
Then “AGAATACCATTTTATAATTGCTAGGAATCGCCAACGCTCGCGGAGTCACCTAGTGCAG”, with 3190 fluorescence intensity (a.u.).
With “TACCGGTTATTGATAGTGTAGTATGTAACTATTGTATGAACGGAGTCACCTAGTGCAG”, the binding signal was 3370 fluorescence intensity (a.u.).
Then “AGTTAATCAAACCGAGCCAATCCAAGCCTGTTCTTTGCCACGGAGTCACCTAGTGCAG”, with 3960 fluorescence intensity (a.u.).
For “TAATTAATTAAACCAAACATTAAATATATTTTGATAATATCGGAGTCACCTAGTGCAG”, the binding signal is 20900 fluorescence intensity (a.u.).
The same measure for “GGAATTTGTCATGATAATTGGGAAAATATATACTGCAAACCGGAGTCACCTAGTGCAG”: 21200 fluorescence intensity (a.u.).
The same measure for “TTAATGAATTTAGACATAATATATATCTAGATTCATTAGCCGGAGTCACCTAGTGCAG”: 20500 fluorescence intensity (a.u.); for “GCTATTAGATTGACTATATATGAATTGGAGCTAGTAGTTGCGGAGTCACCTAGTGCAG”: 42900 fluorescence intensity (a.u.); for “ACGAATCTTTTGAGTCTAATTAGTCCATGATTAGCCATAACGGAGTCACCTAGTGCAG”: 13600 fluorescence intensity (a.u.).
The same measure for “TTAACTAATTATATGTCAATGAGTCGTTTCATTCTACGTGCGGAGTCACCTAGTGCAG”: 48400 fluorescence intensity (a.u.).
Take “AGTACTGTAGATAATAAAGTAAGTCACGAATAAAATAAATCGGAGTCACCTAGTGCAG”: the binding signal is 50900 fluorescence intensity (a.u.).
The same measure for “TTCTTTAAATCACACAAGTAATCTGTTTCACTGATGAGTGCGGAGTCACCTAGTGCAG”: 3290 fluorescence intensity (a.u.).
Then “GGCTAAATAGACTTATTCCATTCCAACAAGAGTGGAAATTCGGAGTCACCTAGTGCAG”, with 4000 fluorescence intensity (a.u.); and “TGATAACTAATATATTTGTCATAACTCACTTTACACATACCGGAGTCACCTAGTGCAG”, with 3920 fluorescence intensity (a.u.); and “TTTCAATATTTTAATTTATTGTTCAACTTCTAATAGATGTCGGAGTCACCTAGTGCAG”, with 4000 fluorescence intensity (a.u.).
“ATAAAATTGCCACATAAGCACCACGTCAATGCTATGTGGGCGGAGTCACCTAGTGCAG”: the binding signal is 3430 fluorescence intensity (a.u.).
The same measure for “CATTACTATAATTGTATTACTTTTGGTAATCATTACCTAGCGGAGTCACCTAGTGCAG”: 7680 fluorescence intensity (a.u.).
For “AGTAAATTACTTTTAAATTAATAAAATATCTGAATATACGCGGAGTCACCTAGTGCAG”, the binding signal was 35000 fluorescence intensity (a.u.).
Then “TCAAGATTTGTAAATTAGTGTTTCCAATTTAATTACATAGCGGAGTCACCTAGTGCAG”, with 30600 fluorescence intensity (a.u.).
Turning to “CCGTAATTTGTTTCAATTTAACTGTTATGAAAATAGAGCTCGGAGTCACCTAGTGCAG”, the binding signal is 35700 fluorescence intensity (a.u.).
On to “TTATAATTATTTAATTCACAAATCCATACAAGCAGTGACACGGAGTCACCTAGTGCAG”, for which the binding signal is 19100 fluorescence intensity (a.u.).
The same measure for “GATGGTATAATGGCAATTTTCTCGGCCTGACTGACGCCGGCGGAGTCACCTAGTGCAG”: 10300 fluorescence intensity (a.u.); for “TCCTAATAGGACATCCAAGCAAAACTAACACTCTAGAGCACGGAGTCACCTAGTGCAG”: 3390 fluorescence intensity (a.u.).
Then “TTCTTAATTAGTAAGTATTAATCTCAATGAGTTGGTCGTTCGGAGTCACCTAGTGCAG”, with 25900 fluorescence intensity (a.u.).
The same measure for “TGCTTGCTTGCTTGGTTTGATTGGTGGAGGTGGGAGGAGTCGGAGTCACCTAGTGCAG”: 3920 fluorescence intensity (a.u.).
On to “GGGCCTAATATCAAATAATTAGAAGGGGTAAAGCTTCGAACGGAGTCACCTAGTGCAG”, for which the binding signal was 3770 fluorescence intensity (a.u.).
The same measure for “ACATTAACAAACTCTATCTTAACATTTAGATGCAAGAGCCCGGAGTCACCTAGTGCAG”: 3790 fluorescence intensity (a.u.).
